The list shows a part of the results. At the low end of the ranking the order means little.

The assay deals with T1, GST-NbGlk1(82-244).
T1 sequence: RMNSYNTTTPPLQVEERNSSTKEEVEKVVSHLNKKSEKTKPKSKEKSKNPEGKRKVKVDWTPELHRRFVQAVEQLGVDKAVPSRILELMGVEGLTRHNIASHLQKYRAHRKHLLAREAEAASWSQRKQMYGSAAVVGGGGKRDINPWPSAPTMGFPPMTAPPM
The assay can be described thus: protein-binding microarray.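 Note: rank-based score ranging −0.5 to +0.5 with E above 0.45 taken as significant binding.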 The following applies: NbGlk1 is a Golden2-like transcription factor of Nicotiana benthamiana; high values mean tight binding; most listed sequences are background and not binding sites; double strand, one strand shown.
For the sequence ATGTCTCC, the binding signal was -0.0271 E-score.

AGTCTTCG registered a binding signal of -0.155 E-score.

The sequence AGCGGGCC came in with a binding signal of -0.318 E-score.

Regarding AACGCGCC, the binding signal is -0.161 E-score.

Sequence AGAGGAAC had a binding signal of -0.262 E-score.

Take ACCTAGCA: the binding signal is -0.146 E-score.

In turn, ACCTGTCT returned a binding signal of -0.0384 E-score.

As for ACTGCTCT, the binding signal was -0.0249 E-score.

The sequence AATGTTAT yielded a binding signal of 0.109 E-score.

Turning to AACCTCCA, the binding signal was -0.252 E-score.

Turning to ATGTGAAG, the binding signal amounted to 0.107 E-score.

As for ACTCTGCC, the binding signal was -0.00764 E-score.

The sequence CAGCAAAA came in with a binding signal of 0.106 E-score.

The sequence ATAACGAA displayed a binding signal of 0.184 E-score.

Regarding AGCATTTA, the binding signal was determined as 0.102 E-score.

In the case of AGATCTTG, the binding signal came to 0.373 E-score.

On to AATTGAGG, for which the binding signal turned out to be 0.0592 E-score.

ACAATCTA returned a binding signal of 0.38 E-score.

As to ATAAAGAT, the binding signal is 0.279 E-score.

In turn, AGAACTGA displayed a binding signal of 0.0646 E-score.

Consider ACCCAAGG, for which the binding signal is -0.275 E-score.

Turning to AAATCAGC, the binding signal came to 0.363 E-score.

AGGTCGCG gave a binding signal of -0.195 E-score.

Sequence ACAGAGGC showed a binding signal of -0.251 E-score.

Sequence CACACCTG showed a binding signal of -0.116 E-score.

The sequence AGTATGCA came in with a binding signal of 0.0583 E-score.

For ATTTAGTG, the binding signal came to 0.096 E-score.

The sequence CAAAGGTC showed a binding signal of -0.0929 E-score.

Take ACCCAATC: the binding signal turned out to be 0.0743 E-score.

As for AACCATTA, the binding signal was -0.015 E-score.

In turn, ACGAACGA gave a binding signal of 0.0306 E-score.

Turning to AAAGCAGT, the binding signal is -0.158 E-score.

In turn, ACCTTATA came in with a binding signal of -0.0146 E-score.

Consider AAGAGCGG, for which the binding signal is -0.153 E-score.

For ATTACCTC, the binding signal came to 0.23 E-score.

CAGATGCC came in with a binding signal of -0.0923 E-score.

CAACCTGC registered a binding signal of -0.222 E-score.

Sequence AAGTCCTG yielded a binding signal of -0.176 E-score.

On to AAATTGAC, for which the binding signal was -0.0724 E-score.

In the case of AGCAGCGA, the binding signal is -0.0508 E-score.

ACCTTGGC yielded a binding signal of -0.147 E-score.

AAGCTGGG yielded a binding signal of -0.0369 E-score.

On to ACCTTACC, for which the binding signal was -0.141 E-score.

Sequence ATCCATAG registered a binding signal of 0.124 E-score.

Sequence CACGATGA returned a binding signal of -0.0867 E-score.

In turn, ATTGCATA yielded a binding signal of 0.29 E-score.

Take ACCTCTAT: the binding signal is -0.0919 E-score.

Consider AGACCTAA, for which the binding signal was -0.0496 E-score.

ACTGGCCA: the binding signal is -0.154 E-score.

On to AATACGGG, for which the binding signal was determined as 0.0313 E-score.

As to AGATACAG, the binding signal was found to be 0.07 E-score.

The sequence ATGTTGTC returned a binding signal of 0.0612 E-score.

For ATAAGAGG, the binding signal is -0.147 E-score.

In turn, AAATATCT showed a binding signal of 0.407 E-score.

ACAGACCC showed a binding signal of -0.185 E-score.

On to ATAAGCGC, for which the binding signal was -0.0643 E-score.

ACGGAGAC gave a binding signal of -0.125 E-score.

Consider AGATCGTA, for which the binding signal came out at 0.283 E-score.

Sequence CACTCCCC had a binding signal of -0.126 E-score.

For AAAACCAT, the binding signal was -0.0642 E-score.

In turn, ACCTGAAA yielded a binding signal of 0.067 E-score.

AGCCGAGC had a binding signal of -0.234 E-score.

ACCTATAT came in with a binding signal of 0.113 E-score.

In turn, ACGCTTAG had a binding signal of -0.08 E-score.

In turn, AGCGGCTA showed a binding signal of -0.259 E-score.

ATCCCAGA showed a binding signal of 0.276 E-score.

CACGAGCG yielded a binding signal of -0.16 E-score.

As to ACTCGATG, the binding signal is -0.16 E-score.

In turn, ATCGGGGC had a binding signal of 0.0347 E-score.

Take ACTAAAGG: the binding signal is -0.105 E-score.

As for AGTGAGGA, the binding signal is -0.115 E-score.

Sequence ATCTCCGG showed a binding signal of 0.318 E-score.

Sequence AAAGTCTA registered a binding signal of -0.0963 E-score.

Consider AGGAAAGG, for which the binding signal was -0.269 E-score.

In the case of ATATGTGC, the binding signal is 0.149 E-score.

AATAAGGG had a binding signal of -0.0847 E-score.

For the sequence AATCTGTG, the binding signal worked out at 0.411 E-score.

CACTGCCG came in with a binding signal of -0.121 E-score.

Consider AACGGACT, for which the binding signal is -0.221 E-score.

ATTAATTG had a binding signal of 0.165 E-score.

AGGAACCT displayed a binding signal of -0.235 E-score.

Sequence AGGGCCAT came in with a binding signal of -0.307 E-score.

Regarding ATAAGTAC, the binding signal turned out to be 0.0637 E-score.

In the case of CAATTAAC, the binding signal was -0.00938 E-score.

The sequence CAGCAGAA had a binding signal of -0.0446 E-score.

Sequence CAAGTGGA registered a binding signal of -0.107 E-score.

Sequence ATCCGGAT registered a binding signal of 0.422 E-score.

The sequence AATTCGTG displayed a binding signal of -0.0511 E-score.

For AATGAGAG, the binding signal was -0.121 E-score.

In turn, CAACGGCG gave a binding signal of -0.176 E-score.

On to ATGTTCAC, for which the binding signal was -0.0288 E-score.

On to AATTTGTC, for which the binding signal is 0.123 E-score.

The sequence CAATGAAG gave a binding signal of 0.0497 E-score.

Consider AGTGTATG, for which the binding signal is 0.0235 E-score.

In turn, CAACTAAA returned a binding signal of 0.0955 E-score.

Consider ATGTGTCG, for which the binding signal was -0.0713 E-score.

AGCATGCT returned a binding signal of -0.215 E-score.

In turn, ATGTACCA gave a binding signal of 0.00685 E-score.

ACTAGTAG returned a binding signal of -0.125 E-score.

In turn, ATCCTCCC yielded a binding signal of 0.225 E-score.

Take CAGCACGC: the binding signal is -0.218 E-score.

In turn, AAGTTTGC yielded a binding signal of -0.0642 E-score.

With CACGGGCA, the binding signal is -0.173 E-score.

Take AAGTAGGG: the binding signal is -0.0233 E-score.

In turn, CAACTAGA yielded a binding signal of 0.0228 E-score.

In turn, AAAGGATG registered a binding signal of -0.0491 E-score.

ATCGAGAA displayed a binding signal of 0.236 E-score.

Consider ACGTGGCG, for which the binding signal is -0.0601 E-score.

With AGACCTGG, the binding signal is -0.165 E-score.

In turn, AGAAAAGC registered a binding signal of -0.0247 E-score.

In the case of ACCCCTCC, the binding signal was -0.2 E-score.

On to AGGAGAGC, for which the binding signal is -0.327 E-score.

As for AATAGGAT, the binding signal was 0.218 E-score.

As for AACAGCGT, the binding signal is -0.0802 E-score.

With CACGCACG, the binding signal was -0.0203 E-score.

Regarding ATCACACG, the binding signal was 0.129 E-score.

The sequence AGAGAGGC gave a binding signal of -0.403 E-score.

AGTCCCGC displayed a binding signal of -0.256 E-score.

In turn, AGGGGATG returned a binding signal of -0.257 E-score.

With AAAGCGAA, the binding signal turned out to be 0.0452 E-score.

For the sequence ACCCACGA, the binding signal is 0.0368 E-score.

Regarding CAGCGTAG, the binding signal is -0.177 E-score.

In the case of AGCGCCTA, the binding signal was -0.129 E-score.

Sequence AAACAGCA had a binding signal of -0.0627 E-score.

Sequence AGCGTTAA yielded a binding signal of 0.00763 E-score.

Regarding ACGCTTCG, the binding signal was -0.00731 E-score.

CAAATCTG showed a binding signal of 0.43 E-score.

Sequence ATAAGGTC registered a binding signal of -0.17 E-score.

In the case of AGGGAAAC, the binding signal is -0.00923 E-score.

On to CAGAAACA, for which the binding signal stood at 0.0737 E-score.

As for AAATAAGG, the binding signal came to 0.08 E-score.

The sequence AGCTACGG had a binding signal of -0.108 E-score.

Consider ACGTCACC, for which the binding signal was -0.0572 E-score.

As to AAGGATCG, the binding signal turned out to be 0.129 E-score.

Regarding AGATGCGA, the binding signal was determined as 0.0577 E-score.

AGGCGGTA came in with a binding signal of -0.127 E-score.

In the case of AACGATTC, the binding signal was determined as 0.214 E-score.

In turn, ATCATTCA gave a binding signal of 0.0496 E-score.

AGGAAGCA came in with a binding signal of -0.0662 E-score.

Sequence ACGTCTCC gave a binding signal of -0.25 E-score.

Sequence ACAGTGGG gave a binding signal of -0.215 E-score.

With CACCTCTA, the binding signal was -0.204 E-score.

With AGGACTCA, the binding signal was -0.182 E-score.

The sequence ACCACCCC yielded a binding signal of -0.137 E-score.

As for ACAACTAG, the binding signal was -0.174 E-score.

The sequence AGGTACCC had a binding signal of -0.24 E-score.

In turn, AGCGCGCC showed a binding signal of -0.192 E-score.

CAGCCGTC: the binding signal was -0.231 E-score.

AGATTGGA: the binding signal was found to be 0.154 E-score.

The sequence ATCAAACA displayed a binding signal of 0.0561 E-score.

For the sequence AACTGGCC, the binding signal was -0.106 E-score.

As for AAATCGCT, the binding signal worked out at 0.295 E-score.

As for ATGGGGAA, the binding signal was -0.024 E-score.

For AGATCGCT, the binding signal was found to be 0.346 E-score.

For AGCCTGAA, the binding signal was -0.155 E-score.

With AGCTGACC, the binding signal was -0.241 E-score.

ACTGAGAG showed a binding signal of -0.103 E-score.

As to ATTATAAT, the binding signal came out at 0.307 E-score.

AATTACGA returned a binding signal of 0.239 E-score.

For AAGTCGGC, the binding signal is -0.161 E-score.

Take AAAGAAGT: the binding signal amounted to 0.077 E-score.

With AAGCCAGA, the binding signal was -0.0963 E-score.

With AAAGAAAG, the binding signal turned out to be 0.021 E-score.

Regarding ATTCATCA, the binding signal is 0.125 E-score.

Turning to ACATGACG, the binding signal is -0.149 E-score.

Take AATATACG: the binding signal is 0.253 E-score.

With AAGTTGCT, the binding signal is -0.174 E-score.

In turn, CAGCAAAC came in with a binding signal of 0.0155 E-score.

AATGCCAA showed a binding signal of -0.15 E-score.

ACACTCTA displayed a binding signal of 0.0709 E-score.

AAAATGTC: the binding signal was -0.0534 E-score.

With ATGGTTAA, the binding signal turned out to be 0.074 E-score.
